# From the supplement of paper PMC12217912
# This is one part of the list. Sequences were assembled here from the parent chain. Inactive controls read about 0.05.
# B1: TEV protease; numbered along this chain (parent)
# chain: MGESLFKGPRDYNPISSSICHLTNESDGHTTSLYGIGFGPFIITNKHLFRRNNGTLVVQSLHGVFKVKDTTTLQQHLVDGRDMIIIRMPKDFPPFPQKLKFREPQREERICLVTTNFQTKSMSSMVSDTSCTFPSGDGIFWKHWIQTKDGQCGSPLVSTRDGFIVGIHSASNFTNTNNYFTSVPKNFMELLTNQEAQQWVSGWRLNADSVLWGGHKVFMVKPEEPFQPVKEATQL
# Variants of: B1
# Assay: raw area under fraction-flipped curve 0-4 h after induction (AUC4h, not background-subtracted), DNA-recorder readout of cleavage of the substrate (dimensionless); higher = more cleavage of the substrate by the protease variant
# Details: temperature: 34 °C; time window: 0-4 h after rhamnose induction
# Method: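 In vivo DNA recorder in E. coli TOP10(DE3) ΔrhaA at 34 °C. Each TEVp single-site mutant (parent TEVp 0) is paired with a single-site variant of the 7-mer TEVs (canonical ENLYFQ|S). The substrate sits between flexible linkers in a Bxb1-sfGFP-TEVs-SsrA fusion, so cleavage stabilises Bxb1 and speeds flipping of a recombination array, read by NGS. The value is the raw area under the fraction-flipped curve over 0-4 h after rhamnose induction (AUC4h), with ≥20 reads per time point. It is not background-subtracted; inactive controls average about 0.047.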
# 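Further: Bxb1 expression induced with 0.2% (w/v) L-rhamnose at OD600 near 0.5, cultures sampled hourly, flipped fraction per protease–substrate barcode pair counted by paired-end Illumina sequencing.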
Variant,area with substrate EALYFQS,area with substrate ECLYFQS,area with substrate EFLYFQS,area with substrate EILYFQS,area with substrate EKLYFQS,area with substrate ELLYFQS,area with substrate EMLYFQS,area with substrate EPLYFQS,area with substrate EQLYFQS,area with substrate ESLYFQS,area with substrate EVLYFQS,area with substrate EWLYFQS,area with substrate EELYFQS,area with substrate EGLYFQS,area with substrate ETLYFQS,area with substrate ERLYFQS,area with substrate EDLYFQS,area with substrate EHLYFQS,area with substrate EYLYFQS
S127Q,0.113,0.108,0.0726,0.077,0.0735,0.0937,0.129,0.12,0.153,0.106,0.0938,0.0962,–,–,–,–,–,–,–
E108F,0.0765,–,–,0.073,0.111,–,–,0.0553,0.0614,0.0526,–,–,0.068,0.0521,0.0396,–,–,–,–
K90R,0.102,0.0966,–,–,0.102,–,–,–,0.0954,0.104,0.103,–,–,–,–,–,–,–,–
P89M,0.0924,0.0751,–,0.0786,0.0957,0.0762,0.0859,0.0921,–,0.0976,0.0786,–,–,0.0634,0.0796,–,–,–,–
F92D,0.0624,0.0504,–,0.0613,0.0601,0.0677,–,0.0876,–,0.0524,0.0516,–,–,–,–,0.052,–,–,–
F92I,0.108,0.0699,–,–,–,0.0957,–,–,0.101,0.105,0.0946,0.0906,0.116,–,–,0.0819,–,–,–
I84R,0.0627,0.0654,0.0542,0.0611,0.0588,0.0569,0.0553,0.0324,0.0366,0.0606,0.0438,–,–,0.0576,0.146,–,–,–,–
I84T,0.0852,–,–,–,0.0837,–,–,–,0.101,–,–,–,–,–,–,–,0.102,–,–
I84D,0.0523,–,0.0525,0.0555,–,0.0432,0.0642,0.0397,0.0444,0.0458,0.042,0.0519,0.0506,–,–,0.0357,0.0717,0.0263,0.0417
I86L,0.14,0.132,–,0.0981,–,–,–,–,0.147,–,0.093,–,–,0.17,–,–,–,–,–
Q105P,0.0691,0.0546,0.0543,0.0335,0.0493,–,0.0508,–,0.0554,0.0536,0.0426,–,–,0.0597,–,0.06,–,–,–
N116H,0.0821,0.0836,–,–,–,–,0.105,0.111,–,0.122,–,–,–,–,–,0.104,–,–,–
S124H,0.0994,–,0.13,0.105,0.116,–,–,0.121,–,0.116,–,–,0.122,0.0992,–,–,0.159,0.133,0.124
F117Q,0.12,0.18,–,0.0969,–,–,0.136,0.103,0.158,0.15,0.0768,0.126,–,–,0.113,0.142,–,0.103,0.116
L73C,0.0787,–,–,0.0685,–,–,0.068,–,0.0879,0.0638,0.0574,–,–,–,–,–,–,–,0.0661
L73H,0.0665,–,0.0684,0.0467,0.0458,0.0515,0.0614,0.0695,0.0491,0.0247,0.0611,0.0548,–,–,–,0.063,0.0806,–,–
L73D,0.0675,0.0377,–,–,0.0483,0.0567,–,0.0508,–,0.052,0.0475,0.0554,0.0591,–,0.0589,0.0656,–,0.0542,–
